Measurements reported in PubChem BioAssay AID485367 (National Center for Advancing Translational Sciences (NCATS), 2010).
Hit rate of the full screen: of about 330,000 compounds, about 560 (0.17%) were called active. The inconclusive results got no clear call from the source; some entries with a clear call stand among them for comparison. Calls come from the whole dose curve; as a rule, active = well fitted inhibition curve with a large enough effect; inconclusive = small, poorly fitted or top-dose-only effect, or effect the other way; inactive = flat fitted curve, though single readings scatter. No potency is given beside an inconclusive call; the fits are too rough.
Note: nearly all actives have a fitted effect of over 60% in size.
Potency is the fitted concentration of half-maximal effect; tags give direction and shape of the fitted curve.
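Throughout, for activity, negative = inhibition: 0% = uninhibited 1x PFK enzyme wells and -100% = no-enzyme wells.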

What follows are molecules tested against ATP-dependent 6-phosphofructokinase (Trypanosoma brucei brucei) (UniProt O15648) (assay: qHTS Assay to Find Inhibitors of T. brucei phosphofructokinase). Details: T. brucei PFK, ADP-Glo luminescence; activity, negative = inhibition: at 57.5 µM (top of the series).
Chain of UniProt O15648 (O15648 whole entry, looked up): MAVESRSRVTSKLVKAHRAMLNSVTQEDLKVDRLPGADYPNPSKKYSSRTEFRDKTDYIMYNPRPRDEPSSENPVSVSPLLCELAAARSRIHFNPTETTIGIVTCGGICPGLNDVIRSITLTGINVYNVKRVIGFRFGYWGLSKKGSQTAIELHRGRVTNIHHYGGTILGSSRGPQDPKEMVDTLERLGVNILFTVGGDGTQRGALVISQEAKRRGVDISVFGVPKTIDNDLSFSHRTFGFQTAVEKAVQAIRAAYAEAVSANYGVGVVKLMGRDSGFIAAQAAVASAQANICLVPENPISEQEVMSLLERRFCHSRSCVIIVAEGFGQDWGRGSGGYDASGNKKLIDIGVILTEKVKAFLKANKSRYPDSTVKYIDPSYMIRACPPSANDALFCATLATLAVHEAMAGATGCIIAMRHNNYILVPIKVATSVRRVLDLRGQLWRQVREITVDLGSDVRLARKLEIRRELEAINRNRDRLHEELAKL
How it was run: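 PFK 1.25 nM, F6P 0.5 mM, ATP 0.1 mM, 0.1 M TEA pH 8.0, 5 mM MgCl2, 0.01% Tween20, 0.1% BSA; 45 min RT. ADP-Glo readout. qHTS titration up to 57 uM; curves fitted, compounds curve-classed.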
For `CCN=C1S/C(=C\c2ccc(-c3cccc(C(=O)O)c3)o2)C(=O)N1CC`, the Potency was inconclusive [activator, partial curve]. In the case of `Nc1nonc1C(=O)N/N=C/c1cc2c(cc1Br)OCO2`, the “activity, negative = inhibition” value is reported as inactive: 1.02%. With `O=C(c1ccc(Cl)c([N+](=O)[O-])c1)N1CCN(S(=O)(=O)c2ccc(Cl)cc2)CC1` the “activity, negative = inhibition” value was inactive: 1.09%. In the case of `O=C(Nc1ccc(Cl)c(Cl)c1)Nc1ccon1`, the Potency is reported as inconclusive [falling, partial curve]. With `CCOc1c(Br)cc(/C=C2\N=C(C)OC2=O)cc1Br` the “activity, negative = inhibition” value was inactive: -5.36%. For `CCCn1nc2cc(C(=O)NCc3ccccc3)ccc2c1OCC`, the Potency was inconclusive [falling, partial curve, poor fit]. With `CNc1ccc(C(O)(C(F)(F)F)C(F)(F)F)cc1C(O)(C(F)(F)F)C(F)(F)F` the Potency was inconclusive [activator, single point]. In the case of `OCCN1CCN(C(=S)c2ccc(Cl)cc2)CC1`, the Potency is reported as inconclusive [falling, single point]. For `COC(=O)c1ccc(NC(=O)CCc2nnc3ccc(NCc4ccco4)nn23)cc1`, the Potency was inconclusive [falling, single point]. With `Cc1c(Cl)sn(-c2ccc(Cl)cc2)c1=O` the Potency was active: 6.75 µM. For `C=C(C)C(=O)Nc1ccc2c(c1)OCCOCCOCCO2`, the Potency was active: 10.7 µM. With `Cc1ccc(-n2nc3c(c2NC(=O)CCC2CCCCC2)CS(=O)C3)cc1` (stereo unspecified) the Potency was inconclusive [falling, single point]. In the case of `CNC(=O)C(=O)NCC1OCCN1S(=O)(=O)c1ccc(C)cc1` (stereo unspecified), the “activity, negative = inhibition” value is reported as inactive: -2.77%. `O=C(NCc1ccncc1)C12CC3CC(CC(C3)C1)C2` was tested, and the “activity, negative = inhibition” value was inactive: 3.98%. For `Cc1ccc2c(c1)C=CC(C#N)N2C(=O)c1ccccc1` (stereo unspecified), the Potency was inconclusive [falling, single point]. With `COc1ccccc1N1CCN(c2ccnc3cc(Cl)ccc23)CC1` the “activity, negative = inhibition” value was inactive: -1.39%. With `CCOc1cc(/C=C2/NC(=O)NC2=O)cc(Br)c1OCc1ccc(C(=O)O)cc1` the Potency was inconclusive [falling, single point]. For `O=C(CSc1nc2nc(-c3cccs3)cc(C(F)(F)F)c2c(=O)[nH]1)Nc1ccc(F)c(F)c1`, the “activity, negative = inhibition” value was inactive: -4.23%. `COc1cc(NC(=S)NCCc2c[nH]c3ccccc23)c(OC)cc1Cl` was tested, and the Potency was inconclusive [falling, full curve, poor fit]. With `CC(=O)Nc1ccc(NC(=O)c2ccccc2Sc2ccc([N+](=O)[O-])cc2Cl)cc1` the “activity, negative = inhibition” value was inactive: -4.23%. With `O=C(Oc1ccc(Cl)c2cccnc12)c1ccco1` the Potency was inconclusive [activator, single point]. In the case of `COc1ccc(/C(C)=N/NC(=O)CNC(=O)/C=C/c2ccccc2OC)cc1`, the Potency is reported as inconclusive [activator, single point]. In the case of `Cc1cc(N)c2cc(NC(=O)/C=C/c3ccccc3Cl)ccc2n1`, the Potency is reported as inconclusive [activator, single point]. `Cc1ccc(CN2CCSc3ccc(C(=O)NCCCN4CCN(C)CC4)cc32)cc1` was tested, and the “activity, negative = inhibition” value was inactive: 11.3%. With `N/C(=N\OC(=O)c1ccccc1Cl)c1ccccn1` the Potency was inconclusive [falling, partial curve]. In the case of `COc1ccc(CN(C)C2CCN(C)CC2)cc1OC`, the “activity, negative = inhibition” value is reported as inactive: 0.776%. In the case of `O=C(NCCc1ccccc1F)C1CCC(=O)N(CCCN2CCCC2=O)C1` (stereo unspecified), the “activity, negative = inhibition” value is reported as inactive: 1.93%. For `O=C(N/N=C/c1ccc2c(c1)OCO2)C1COc2ccccc2O1` (stereo unspecified), the Potency was inconclusive [falling, partial curve]. For `CSS(=O)(=O)c1cccc2cccnc12`, the Potency was active: 16.9 µM. For `COC(=O)Oc1nsnc1N1CCOCC1`, the Potency was active: 26.9 µM. For `CCCCCCN(C(=O)CCCCCN1C(=O)NC(c2ccccc2)C(C(=O)OCc2ccccc2)=C1C)C(C(=O)NCCCC)c1ccc(OCC(=O)OC)c(C(=O)OC)c1` (stereo unspecified), the “activity, negative = inhibition” value was inactive: -4.3%. For `CCOC(=O)c1[nH]c(C)c(/C(O)=C2\C(=O)C(=O)N(CCCn3ccnc3)C2c2ccncc2)c1C` (stereo unspecified), the Potency was active: 23.9 µM. `O=C(O)CC/C(=C\c1cccc(NC(=O)c2ccccc2Cl)c1)c1nc2ccccc2s1` was tested, and the Potency was inconclusive [falling, single point]. `COc1ccc(C(=O)Nn2cnc3ccccc3c2=O)cc1[N+](=O)[O-]` was tested, and the “activity, negative = inhibition” value was inactive: -8.01%. For `C#CCOCCOCCOCCNc1nc(N2CCN(C(=O)CCCCCCCCCCNC(=O)[C@@H](CCC(=O)O)n3cc(CCCCCN)nn3)CC2)nc(N2CCN(C(=O)CCCCCCCCCCNC(=O)[C@H]([C@@H](C)CC)n3cc(CCCCCN)nn3)CC2)n1`, the Potency was inconclusive [activator, single point]. With `CC(OC(=O)C1CCN(c2ccc(C(F)(F)F)cn2)CC1)C(=O)c1ccccc1` (stereo unspecified) the Potency was inconclusive [falling, single point]. With `COC(=O)CNC(c1ccccc1)c1cc(Br)ccc1NC(=O)OCc1ccccc1` (stereo unspecified) the activity, negative = inhibition was inactive: 1.77% [at 0.46 µM]. For `NC(CSS(=O)(=O)O)=NCCC12CC3CC(CC(O)(C3)C1)C2`, the Potency was inconclusive [falling, partial curve]. For `Cc1cc(C(=O)Nc2ccccc2)oc1C`, the Potency was inconclusive [falling, full curve, poor fit]. With `COc1cc(Br)cc(CN2CCN(c3ncccn3)CC2)c1O` the Potency was inconclusive [falling, single point]. `COc1cc([N+](=O)[O-])ccc1NC(=O)Nc1cccnc1` was tested, and the Potency was inconclusive [falling, full curve]. For `O=c1c(Cl)c(Cl)cnn1Cc1ccccc1Cl`, the “activity, negative = inhibition” value was inactive: -5.77%. In the case of `Nc1cccc2c1C(=O)N(C(=O)c1ccc(Cl)c(S(=O)(=O)N3CCCCCC3)c1)C2=O`, the Potency is reported as inconclusive [falling, single point]. With `Cn1cc(CN2CCCC(C(=O)Nc3cccc(-c4cc5ccccc5[nH]4)c3)C2)cn1` (stereo unspecified) the “activity, negative = inhibition” value was inactive: -2.62%. `O=Cc1s/c(=N\S(=O)(=O)c2ccccc2)n(CCCCl)c1Cl` was tested, and the Potency was inconclusive [falling, single point]. In the case of `O=[N+]([O-])c1ccc(N=Cc2c(O)ccc3ccccc23)cc1`, the Potency is reported as inconclusive [falling, partial curve].
